Experimental data as given in the supplement of paper PMC11417369.
Some of the results follow.

Test system: PfHDP1 homeodomain (GST-tagged)
Assay: gcPBM binding intensity (ln(normalized median fluorescence intensity)); higher = stronger DNA binding
In short: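 GST-tagged P. falciparum DNA-binding domains, expressed in E. coli (about 25 μg on average), were applied for 1 h to an Agilent 4 × 180k array of primer-extended double-stranded 36-bp intergenic genomic probes plus negative controls. The binding buffer was 1× PBS with 1% milk, 0.2 mg/ml BSA, 0.5% salmon testes DNA and 0.03% Triton X-100. Bound protein was detected with Alexa488 anti-GST antibody and scanned at 488 nm. Binding intensity is the highest Masliner-normalised natural-log median intensity across replicate spots of either probe orientation.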

Row | Sequence | gcPBM binding intensity (ln)
1 | TGTAATACAGAAAAAAGTACTAAAAAGAAAAGGATT [XGTACX_site3176] | 6.95
2 | TATTATATTTATTTATGTACACATATACTTAAATAA [XGTACX_site1355] | 6.42
3 | TTTTTTTTTTTAATATGTACGTAAAATAAGTTTAAA [XGTACX_site6495] | 6.24
4 | ACATTCAATCTACTGTGTACATATTAAACTTTGAAA [XGTACX_site2913] | 7.15
5 | ATAATAATATATACATGTACATATATATATATATAT [XGTACX_site3455] | 9.38
6 | AAATATTTATAAATTGCACACAAATAATAACATTAT [CACACA_site8737] | 10.2
7 | TAACATTACTCTTAACTCTTTTGGATACCAACTTAT [XGTACX_negctrl_site82] | 6.58
8 | TATAAATAGATATATACACACTTGTGCAGAATATTA [CACACA_site7112] | 9.73
9 | AGAAGTGTAAAAGTTACACACACAAACTTGTCATTT [CACACA_site4613] | 6.37
10 | CCCAGGTGCTCGTAACGTACTTACATCAAATATTAT [XGTACX_site4617] | 7.43
11 | AGGCGTGAAATATACGTACACACATTATTTATATTT [CACACA_site2558] | 6.56
12 | AAATAAAAAGTAAAGCGTACAAATGATCAAATAATA [XGTACX_site7898] | 7.12
13 | TAATCAACAAAATCTACACACTAAAATGAAATATAA [CACACA_site3749] | 6.47
14 | ATGGAAAAATGTATATATAAAATAAATATATTATAT [CACACA_negctrl_site1712] | 6.23
15 | CATATTAAAAATACATGTACATATATATTTAATATA [XGTACX_site8580] | 6.23
16 | AACCTCAAATACACAAGTACGTATAATAAGGAACAA [XGTACX_site4304] | 6.5
17 | GTTAAAATAATATTATGTACATATATATAAAAATAT [XGTACX_site8512] | 6.56
18 | GTTTGTAAATATTTTACACACATATTTATTTATATA [CACACA_site6632] | 6.37
19 | TATAAATATGTGTTTACACACAATAATGAATTAAAA [CACACA_site6555] | 5.97
20 | AATAAAAAGATATTCTCCTTGTTCCTTTTTTTTAAA [CACACA_negctrl_site1147] | 6.5
21 | TTAATTAAATATTATACACACAAAAAAATAATTTTA [CACACA_site96] | 6.53
22 | TATATATATGTATGATGTACATATATGCATATATAT [XGTACX_site3399] | 6.67

Row | Sequence | gcPBM binding intensity (ln)
23 | ATAGTATCTGGTAGCTGTACGAATGGTAGAGAGTAG [XGTACX_site2548] | 7.03
24 | ATATATATTCATAATACACACATTCTGTAGCATTAT [CACACA_site2067] | 7.12
25 | ATATATATATTAAAGGTGCACAAATAAATATATACA [GTGCAC_site9532] | 9.88
26 | ATATTTTTTTTCTTCACACACATGAATTATATATAA [CACACA_site3216] | 7.24
27 | ATTTTAACCAATTATTGTACTTGGTTATTCTTTTTT [XGTACX_site7453] | 6.12
28 | AATCTATATTGACACACACACAAAAAAAAAAAAAAA [CACACA_site6739] | 6.28
29 | AATATACACATTGTGAAATAACAAAAAAGGCAAAAA [CACACA_negctrl_site1014] | 7.23
30 | CCTATTTATATATACACACACATATATAAATAAATA [CACACA_site2991] | 6.95
31 | CATATTAGGACAAAGTGTACATATATATATATATAT [XGTACX_site1172] | 9.34
32 | AAATTATTGAAATACGCATGTGTTTTTTTTTTTTTT [TGCATGCA_site391] | 6.39
33 | AATATTACGTCTGGACGTACAAATCTTTTTCGTGTC [XGTACX_site6644] | 6.1
34 | GAAATATTTTGTTGTGCATGCGACATTAAATAAAAA [TGCATGCA_site331] | 8.6
35 | TTTTACTAGATATATACACACATTATACCTATAGAT [CACACA_site7530] | 6.62
36 | ATATAAAGGTTTATTAGTACACATTAGAATACTTTT [XGTACX_site4492] | 6.22
37 | ACATTTTTTTTTTTTTTTTTTTTCTTACATCATGCA [CACACA_negctrl_site1413] | 6.24
38 | TATACGCATATTTTTACACACATATTTTTTCATATA [CACACA_site2546] | 7.18
39 | ATTCAATAATTGTTTTTTTTCTTTTTGTTTTTGTTT [GTGCAC_negctrl_site563] | 6.34
40 | TATCTCATTTGGAATTGTACTAACAGATACTTGTTT [XGTACX_site2672] | 6.24
41 | TATATATAATATATATGTACATATGTATAATATTTA [XGTACX_site4400] | 6.35
42 | TTATGAAAAAAATACTGTACACAATATGACGAAAGT [XGTACX_site2283] | 7.21
43 | TTTTAAATAAATCATGCATGCACATATAATTATATT [TGCATGCA_site151] | 8.34
44 | GAAATATTGAAACACACACACAAACATATATATATA [CACACA_site1911] | 8.9

Row | Sequence | gcPBM binding intensity (ln)
45 | TTTATAGTTTTAAACAAAGTAATACAAATGTATATA [CACACA_negctrl_site1716] | 6.23
46 | TATAAAAAAAATAAAATAAAATAAAATAGAAAAATA [TGCATGCA_negctrl_site109] | 6.54
47 | ATTACATTTTTGTTTTGTACATATATTTTATAAACA [XGTACX_site494] | 6.77
48 | CGTAATAATTAATGTTGTACCCACCAAAAAAATTAA [XGTACX_site8592] | 6.4
49 | TATATTTATATATATACACACATAATAAAAAATATA [CACACA_site844] | 6.41
50 | TTGTTTTGTAATAAAAAAAAAATAATATAATATAAT [XGTACX_negctrl_site300] | 6.41
51 | ATATTTTTTTTTTTCACACACATTTAGATTGTATTA [CACACA_site3137] | 6.93
52 | AAAAAAAAAAAAAATTGTACGGATTCTTTTTTTTTT [XGTACX_site2898] | 6.06
53 | TTGTATAAAAAACTAAAAAATATAAAATAATAAGTG [CACACA_negctrl_site1704] | 6.48
54 | AAACGTTTATTTTATTGTACATATGAAAAATGCTTC [XGTACX_site6896] | 6.77
55 | AACATTATCAAATAAACCATAAATCAATTCAATATG [CACACA_negctrl_site696] | 6.23
56 | AGTGTATTAAATTTTGAACACACAAAATAAAACATA [CACACA_site8483] | 6.45
57 | TTTAGACTTTTCTATAGTACATATTATATATATATA [XGTACX_site6532] | 8.46
58 | TTTTAATTTAAAAATTAATTTATATATATATATATA [TGCATGCA_negctrl_site447] | 9.21
59 | TATACCTTAATATACACACATACATATATATATATA [CACACA_site1339] | 9.13
60 | TAAATCACAAAATTATGTACTAAGAAGGAGCAACAT [XGTACX_site6742] | 7.67
61 | GGGGAAAAAGCAGGTTGTACAGTGATGTCCATATAA [XGTACX_site7606] | 6.64
62 | TAACAAAGTAAAAGAACATGCAAACACGCACACAGA [TGCATGCA_site374] | 7.65
63 | TATTGAAAAAGTGGAAAAAAGTACATCATACGGGAA [CACACA_negctrl_site1091] | 6.98
64 | GTAAGAAACAGACACACACACATATAAATATAAATA [CACACA_site6515] | 6.79
65 | TTATTGCGCACAATTTGTACATATATATATATAGAA [XGTACX_site7573] | 8.98
66 | GAAAAATTAAAATGTGGTACAATAAAATTTTATTCA [XGTACX_site5030] | 6.08

Row | Sequence | gcPBM binding intensity (ln)
67 | ATATTTATACTATACACACCCAATTTAAAAAAAAAT [CACACA_site1163] | 7.11
68 | AATTTATTAATACAAAGTACTTTCTAATATGAATTT [XGTACX_site8013] | 6.46
69 | AAAAAAAAAAAAAAAACACACAATTGAATTATTAAG [CACACA_site2864] | 6.4
70 | TTTTATTATTAAACATGTACCCATATTATTGTTATG [XGTACX_site5563] | 6.65
71 | TTCTTAAAAAATCAAACACACATATATATATACATA [CACACA_site2296] | 6.49
72 | ATAAATAGAATAAAATGTACATGTAATACATATATA [XGTACX_site5475] | 6.38
73 | GTTTAGATAAAAGGGCGTACATCTATTTTTGACTAA [XGTACX_site7170] | 6.15
74 | TTTATAAAATATCTTTCACACATTACTATGTATTAT [CACACA_site5148] | 6.35
75 | ATAAAAGTTTAATATTGTACGAACATGCGTTTCTAA [XGTACX_site1487] | 5.98
76 | AAAAAAAAAAAATATATATATATATATATAATATTT [GTGCAC_negctrl_site678] | 6.76
77 | GAATAAATAAAAATATGTACATAAATATATATATAT [XGTACX_site8858] | 8.84
78 | AAAAAAAAATAAAAAAGTACAGGTAAATATATATAT [XGTACX_site5812] | 7.53
79 | ATACTTTAAAATAATACACACATGGAAAATAAAATT [CACACA_site697] | 6.95
80 | AAGACAAATATGTATTGTACGAACGCTTTTTAATTA [XGTACX_site1961] | 6.39
81 | AGAATTATATCATGGTGTACTTATTTGTTTATTTCT [XGTACX_site5795] | 6.18
82 | AAAAAAATATATTCCTAATTTATGATTAAAAGGAAT [CACACA_negctrl_site751] | 5.83
83 | ATAAATTAAACAAACACACACGTTCTTTTATTTACT [CACACA_site4556] | 6.53
84 | TTTTTTTTTGGGTGTACACATGAATATATATTTTTT [CACACA_site5254] | 7.17
85 | AAAACAAAAAAATTTTGTACGAAACAATACTGTAAG [XGTACX_site7992] | 6.18
86 | TATATATATTGTTATTGTACACAAATATAGGAAATA [XGTACX_site7110] | 6.74
87 | AAATTTGGTGAAGGATGTACTTTACCTAATACTTGT [XGTACX_site4825] | 6.06
